Measured values reported in PubChem BioAssay AID504339 (National Center for Advancing Translational Sciences (NCATS), 2011).
Hit rate of the full screen: of about 390,000 compounds, about 17,000 (4.4%) were called active. Inconclusive means that the source gave no clear call. Such entries were picked first, then a sample of the others. Calls come from the whole dose curve; as a rule, active = well fitted inhibition curve with a large enough effect; inconclusive = small, poorly fitted or top-dose-only effect; inactive = no such curve, though single readings can be large or run the other way. Where the call is inconclusive, the potency comes from a doubtful curve fit.
Note: nearly all actives have a fitted effect of over 50% in size.
Potency is the fitted concentration of half-maximal effect; tags give direction and shape of the fitted curve.

These compounds were tested against Lysine-specific demethylase 4A (Homo sapiens) (UniProt O75164) (assay: qHTS Assay for Inhibitors of JMJD2A-Tudor Domain). Settings: AlphaScreen JMJD2A-Tudor / H3K4me3 peptide binding; series mostly up to 114 µM.
Chain of UniProt O75164 (O75164 whole entry, looked up, the tested form may be a part): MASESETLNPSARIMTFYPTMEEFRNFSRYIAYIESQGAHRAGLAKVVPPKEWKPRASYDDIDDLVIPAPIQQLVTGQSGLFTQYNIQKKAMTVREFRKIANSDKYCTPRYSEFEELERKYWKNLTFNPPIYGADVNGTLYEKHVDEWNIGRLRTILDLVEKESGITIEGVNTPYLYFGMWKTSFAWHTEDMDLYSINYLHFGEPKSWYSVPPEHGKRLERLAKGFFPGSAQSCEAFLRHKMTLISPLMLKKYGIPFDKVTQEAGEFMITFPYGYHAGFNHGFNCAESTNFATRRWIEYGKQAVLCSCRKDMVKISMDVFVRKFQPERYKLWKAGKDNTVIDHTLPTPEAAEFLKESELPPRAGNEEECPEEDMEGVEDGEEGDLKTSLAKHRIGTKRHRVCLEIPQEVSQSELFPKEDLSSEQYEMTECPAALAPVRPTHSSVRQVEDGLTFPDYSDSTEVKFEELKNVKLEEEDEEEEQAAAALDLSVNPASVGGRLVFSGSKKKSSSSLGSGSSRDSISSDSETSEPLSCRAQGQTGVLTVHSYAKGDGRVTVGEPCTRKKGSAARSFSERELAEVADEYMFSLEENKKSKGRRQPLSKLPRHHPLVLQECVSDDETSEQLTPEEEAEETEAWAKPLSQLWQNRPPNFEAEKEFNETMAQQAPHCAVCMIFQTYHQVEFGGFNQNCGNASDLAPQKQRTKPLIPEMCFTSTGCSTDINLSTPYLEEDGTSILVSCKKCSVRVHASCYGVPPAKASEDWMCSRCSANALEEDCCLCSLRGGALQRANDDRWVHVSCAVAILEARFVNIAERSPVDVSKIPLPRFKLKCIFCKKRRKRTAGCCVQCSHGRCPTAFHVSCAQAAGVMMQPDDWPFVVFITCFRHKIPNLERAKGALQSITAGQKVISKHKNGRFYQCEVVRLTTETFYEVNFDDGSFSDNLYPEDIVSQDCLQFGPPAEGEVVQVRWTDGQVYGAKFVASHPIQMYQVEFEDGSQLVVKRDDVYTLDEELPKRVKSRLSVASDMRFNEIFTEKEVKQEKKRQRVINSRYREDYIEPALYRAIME
In the case of `CCSc1ccccc1C(=O)NCc1ccc2c(c1)OCO2`, the Potency is reported as “inactive”. With `COc1cccc(OC)c1C(=O)OCC(=O)N(C)c1ccccc1` the Potency was inconclusive: 39.8 µM [inhibitor, single point]. In the case of `Cc1nc(-n2nc(C)c(Cc3ccccc3Cl)c2C)sc1C(=O)N1CCCCC1C` (stereo unspecified), the Potency is reported as “inactive”. `CCOc1ccc(CCNC(=O)COC(=O)c2cc(S(=O)(=O)N3CCOCC3)ccc2F)cc1OCC` was tested, and the Potency was “inactive”. In the case of `FC(F)(F)c1ccccc1/C=N/n1c(COc2ccccc2)n[nH]c1=S`, the Potency is reported as inconclusive: 56.2 µM [inhibitor, partial curve]. `COc1ccc(C2CC(c3ccc4ccccc4c3)=NN2C(=O)CNC2CCCCC2)cc1` (stereo unspecified) was tested, and the Potency was active: 22.4 µM. `CCOC(=O)CSc1nnc(-c2cccs2)n1-c1ccccc1` was tested, and the Potency was inconclusive: 70.8 µM [inhibitor, single point]. In the case of `CC(C)C[C@@H](CN)NC(=O)c1nc[nH]c1C(=O)N[C@@H](Cc1ccccc1)C(=O)CNC[C@H](C)NC(=O)c1nc[nH]c1C(=O)N[C@@H](C)C(=O)O`, the Potency is reported as active: 79.4 µM. `c1ccc(C[C@H]2CN=C(Nc3ccccc3)N2CC2CCC2)cc1` was tested, and the Potency was inconclusive: 79.4 µM [inhibitor, partial curve, poor fit]. In the case of `Cc1cc(NC(=O)c2ccc(-c3ccc(Cl)cc3)o2)cc(-c2nc3ncccc3o2)c1O`, the Potency is reported as “inactive”. `CCC(=O)Nc1cc(NC(=O)CSc2ncc(-c3ccc(F)cc3)n2Cc2ccco2)ccc1C` was tested, and the Potency was inconclusive: 56.2 µM [inhibitor, partial curve]. For `Oc1ccc(/C=N/Nc2cc(N3CCCC3)nc(N3CCCC3)n2)cc1O`, the Potency was inconclusive: 56.2 µM [inhibitor, partial curve]. For `COC(=O)c1ccc(OCC(O)Cn2cnc3cc(C)c(C)cc32)cc1` (stereo unspecified), the Potency was inconclusive: 79.4 µM [inhibitor, partial curve]. With `CCN(C(=O)CSc1ncc(S(=O)(=O)c2ccc(C)c(Cl)c2)c(=O)[nH]1)c1cccc(C)c1` the Potency was “inactive”. `O=C(NNC(=O)C1CCN(c2ncccn2)CC1)c1ccc(Cl)cc1` was tested, and the Potency was “inactive”. In the case of `COc1ccc(N2CCN(C(=O)c3cn(C4CCCC4)c(=O)c4c3c3ccccc3n4C)CC2)cc1`, the Potency is reported as active: 14.1 µM. For `O=C(C1CCCN(Cc2ccccc2C(F)(F)F)C1)N1CCCCC1` (stereo unspecified), the Potency was active: 3.55 µM. With `O=C(C1CCCCC1)N1CCC2CC1c1cc(Cl)ccc12` (stereo unspecified) the Potency was “inactive”. `Fc1ccc(-n2c(CN3CCCCC3)n[nH]c2=S)cc1` was tested, and the Potency was inconclusive: 3.98 µM [inhibitor, full curve, poor fit]. With `O=C(N/N=C/c1ccc([N+](=O)[O-])o1)c1ccc(NS(=O)(=O)c2cccs2)cc1` the Potency was “inactive”. With `COc1ccc(-c2[nH]c(-c3ccc(C)cc3)nc2SCC(=O)NC2CCCC2)cc1` the Potency was inconclusive: 56.2 µM [inhibitor, partial curve]. For `O[C@@H]([C@H](O)[C@H](O)CBr)[C@H](O)CBr`, the Potency was inconclusive: 89.1 µM [inhibitor, single point]. For `CCOc1ccccc1NC(=O)CN1C(=O)CC(c2ccco2)Sc2ccccc21` (stereo unspecified), the Potency was inconclusive: 70.8 µM [inhibitor, single point]. `O=C(/C=C/c1ccco1)Nc1ccccc1N1CCCC1` was tested, and the Potency was inconclusive: 50.1 µM [inhibitor, partial curve]. With `CC(OC(=O)c1cc(=O)[nH]c2ccccc12)C(=O)NC1CCCC1` (stereo unspecified) the Potency was “inactive”. With `Cn1c(SCC(=O)c2cc3ccccc3o2)nnc1-c1ccccc1` the Potency was inconclusive: 25.1 µM [inhibitor, full curve, poor fit]. In the case of `COc1ccc(NC(=O)CC(c2ccc(F)cc2)c2ccc(OC(C)C)cc2)cc1` (stereo unspecified), the Potency is reported as “inactive”. In the case of `Cc1cc(NC(=O)CCCn2c(C)c3cnn(-c4ccccc4)c(=O)c3c2C)ccc1Br`, the Potency is reported as inconclusive: 79.4 µM [inhibitor, partial curve]. `CC(C)c1[nH]nc2c1C(c1ccco1)C(C#N)=C(N)O2` (stereo unspecified) was tested, and the Potency was “inactive”. With `Cc1ccc(C)c(NC(=O)c2ccccc2O)c1` the Potency was inconclusive: 3.16 µM [inhibitor, partial curve]. For `C[C@@](Cc1ccc(O)c(O)c1)(NN)C(=O)O`, the Potency was active: 79.4 µM. In the case of `Cc1ccc(OC(=O)c2cccc([N+](=O)[O-])c2)c(-n2nc3ccccc3n2)c1`, the Potency is reported as “inactive”. `COc1ccccc1/C=C/C=N/n1c(-c2ccccn2)n[nH]c1=S` was tested, and the Potency was active: 8.91 µM. `COc1ccccc1Nc1nn2c(=O)c3ccc(C(=O)NCc4cccs4)cc3nc2s1` was tested, and the Potency was inconclusive: 89.1 µM [inhibitor, single point]. In the case of `COCc1nnc(NC(=O)c2ccc(S(=O)(=O)N3CCCCCC3)cc2)o1`, the Potency is reported as active: 79.4 µM. In the case of `N#Cc1nc(-c2ccco2)oc1N1CCN(Cc2ccccc2)CC1`, the Potency is reported as inconclusive: 79.4 µM [inhibitor, single point]. In the case of `COCCN1C(=O)c2[nH]nc(-c3ccccc3O)c2C1c1ccc(OCc2ccccc2)c(OC)c1` (stereo unspecified), the Potency is reported as inconclusive: 22.4 µM [inhibitor, full curve]. In the case of `COC(=O)c1c(-c2cccs2)csc1NC(=O)c1ccc(Cl)cc1`, the Potency is reported as “inactive”. `COc1cc2cc(NC(C)=O)cc(NCc3ccccc3)c2cc1OC` was tested, and the Potency was inconclusive: 50.1 µM [inhibitor, partial curve]. In the case of `CCCCN1C(=O)Cc2c1nc(N)c1c(N)nc(N(CCC)CCC)c(C#N)c21`, the Potency is reported as “inactive”. With `c1cc2c3c(cccc3c1)NC1(CCC3(CC1)Nc1cccc4cccc(c14)N3)N2` the Potency was active: 50.1 µM. In the case of `Cc1cc([N+](=O)[O-])nn1CC(=O)N/N=C/c1ccc(O)cc1O`, the Potency is reported as inconclusive: 89.1 µM [inhibitor, single point]. For `c1ccc(COc2ccc(OCCCCN3CCCCC3)cc2)cc1`, the Potency was active: 7.08 µM. For `O=c1c(C=Nc2ccc(Oc3ccccc3)cc2)c[nH]n1-c1cccc(Cl)n1`, the Potency was inconclusive: 22.4 µM [inhibitor, full curve]. In the case of `COc1cc(N=C2C(=O)N3CCCc4cccc2c43)cc(OC)c1`, the Potency is reported as inconclusive: 25.1 µM [inhibitor, single point]. For `Cc1ccc(S(=O)(=O)c2cnc(SCC(=O)Nc3cc(C)cc(C)c3)nc2N)cc1`, the Potency was “inactive”. With `Cc1cccc(OCc2ccc(-c3nc(C#N)c(NCCN(C)C)o3)o2)c1` the Potency was inconclusive: 56.2 µM [inhibitor, partial curve]. With `CCCN(CCC)C(=O)CSc1nnc2cc(C)c3cc(C)cc(C)c3n12` the Potency was active: 15.8 µM. With `Cc1cc(S(=O)(=O)Nc2ccc(N3CCOCC3)cc2)ccc1Br` the Potency was inconclusive: 56.2 µM [inhibitor, partial curve]. For `Cn1c(=O)[nH]c(=O)c2[nH]c(N(Cc3ccccc3)Cc3ccccc3)nc21`, the Potency was inconclusive: 50.1 µM [inhibitor, partial curve, poor fit]. `CN(C)S(=O)(=O)Oc1cc(Cl)ccc1C(=O)Nc1ccc(F)cc1F` was tested, and the Potency was inconclusive: 11.2 µM [inhibitor, partial curve, poor fit]. For `CCN(CC)c1ccc(NC(=O)c2ccccc2F)cc1S(=O)(=O)Nc1ccccc1OC`, the Potency was inconclusive: 79.4 µM [inhibitor, single point]. `CCN(CC)c1ccc(NC(=O)CSc2nnc(C)c(=O)[nH]2)cc1` was tested, and the Potency was inconclusive: 63.1 µM [inhibitor, partial curve, poor fit]. `Cc1cccc(CN2CCN(Cc3cccc4nonc34)CC2CCO)n1` (stereo unspecified) was tested, and the Potency was “inactive”. In the case of `COc1ccc(CNC(=O)CSc2nc3ccc(OC)cc3[nH]2)cc1`, the Potency is reported as “inactive”. `CSc1cccc(-n2cc(-c3ccc4c(c3)OCO4)[nH]c2=O)c1` was tested, and the Potency was inconclusive: 79.4 µM [inhibitor, partial curve]. `CCc1ccc(CCC(=O)Nc2nnc(C)s2)o1` was tested, and the Potency was “inactive”. With `O=C(c1cccc([N+](=O)[O-])c1)N1c2ncnn2C2(CCCCC2)[C@@H]2CCCC[C@@H]21` the Potency was inconclusive: 50.1 µM [inhibitor, partial curve, poor fit]. `CN(C1CCCCC1)S(=O)(=O)c1ccc2c(c1)c(=O)c(C(=O)NCCc1ccc(Cl)cc1)cn2C` was tested, and the Potency was “inactive”. With `O=C(CCN1C(=O)/C(=C/c2ccccc2Cl)SC1=S)Nc1ccccc1C(=O)O` the Potency was inconclusive: 44.7 µM [inhibitor, partial curve]. `O=C(c1ccc(F)cc1)N1CCN(c2ccc([N+](=O)[O-])c(N3CCCCC3)c2)CC1` was tested, and the Potency was inconclusive: 20 µM [inhibitor, full curve]. In the case of `CN(C(=O)COC(=O)C1COc2ccccc2O1)c1c(N)n(Cc2ccccc2)c(=O)[nH]c1=O` (stereo unspecified), the Potency is reported as “inactive”. With `COc1ccc(NCC(=O)Nc2ccc(Br)cc2F)c(OC)c1` the Potency was active: 56.2 µM. In the case of `COc1cc(C2C(C(=O)c3cc4ccccc4o3)=C(O)C(=O)N2CCN2CCOCC2)ccc1OCCC(C)C` (stereo unspecified), the Potency is reported as “inactive”. With `C=CCc1cccc2cc(C(=O)N3CCN(C(=O)c4ccccc4)CC3)c(=O)oc12` the Potency was “inactive”. In the case of `CC1=CC(C)(C)Nc2ccc(OC(=O)CN3C(=O)c4cccc5cccc(c45)C3=O)cc21`, the Potency is reported as inconclusive: 39.8 µM [inhibitor, partial curve]. For `Nc1ccc2nc[nH]c2c1`, the Potency was inconclusive: 39.8 µM [inhibitor, partial curve]. `CCc1ccc(-c2nc(CN3CCC(C(=O)NCc4ccc(F)cc4)CC3)c(C)o2)cc1` was tested, and the Potency was inconclusive: 79.4 µM [inhibitor, single point]. In the case of `Cn1nc(-c2ccc(OCC(=O)Nc3cccnc3)cc2)c2ccccc2c1=O`, the Potency is reported as “inactive”. With `O=C(CN1C(=O)NC(Cc2c[nH]c3ccccc23)C1=O)Nc1cccc(S(=O)(=O)N2CCCCCC2)c1` (stereo unspecified) the Potency was inconclusive: 56.2 µM [inhibitor, partial curve]. For `Cc1ccc(S(=O)(=O)N2[C@@H](c3ccc(Br)cc3)C(C(=O)O)=C[C@H]2CC2CCCC2)cc1`, the Potency was inconclusive: 89.1 µM [inhibitor, partial curve].
